{
  "source": "PubChem BioAssay AID686979",
  "about": "(National Center for Advancing Translational Sciences (NCATS), 2013)",
  "note": "Several values for one entry are separate records, joined by “and”; a condition that tells them apart may be missing. Equal values may be shown once. In all, about 420,000 compounds went through this assay and about 50,000 (12%) were called active. Inconclusive results, whose numbers are uncertain, are shown with a selection of clear calls. The call rests on the fitted dose curve; in most records, active means well fitted inhibition curve with a large enough effect; inconclusive means small, poorly fitted or top-dose-only effect; inactive means flat fitted curve, though single readings scatter. No potency is given beside an inconclusive call; the fits are too rough.",
  "data": [
    {"test": "qHTS for Inhibitors of human tyrosyl-DNA phosphodiesterase 1 (TDP1): qHTS in cells in presence of CPT; further: nearly all actives have a fitted effect of over 55% in size; further: potency means the concentration at half of the fitted maximal effect; tags describe the fitted curve by direction and shape; on activity change, negative = growth inhibition: on the % scale 0 is the no-effect control and ±100 the full control effect", "details": "chicken DT40 Tdp1-/-;hTDP1 cells + 20 nM CPT, ATP luminescence, 48 h; activity change, negative = growth inhibition: at 46.2 µM (top of the series)", "in_short": "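Chicken DT40 Tdp1-/- cells complemented with human TDP1, 400 cells/well, exposed to compounds plus 20 nM camptothecin for at least 48 h at 37 C; viability read as ATP content by CellTiter-Glo luminescence.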", "values": [
      {"molecule": "Cc1cccc(C)c1NC(=O)C1(C)CSCC(=O)N1CCc1ccccc1", "note": "(configuration not stated)", "Potency": "inconclusive [inhibitor, single point]"},
      {"molecule": "CCn1c(=O)sc2cc(NS(=O)(=O)c3ccc(F)c(C)c3)ccc21", "Potency": "active: 10.3 µM"},
      {"molecule": "Cc1ccc(CSc2cn(CC(=O)N3CCCC3)c3ccccc23)cc1", "Potency": "active: 16.4 µM"},
      {"molecule": "CCOc1ccc(Nc2oc(-c3ccc(Cl)cc3)nc2C#N)cc1", "Potency": "inconclusive [inhibitor, full curve]"},
      {"molecule": "COc1cc(NC(=O)C2CSC3(C)CCC(=O)N23)c(OC)cc1Cl", "note": "(configuration not stated)", "Potency": "inactive"},
      {"molecule": "CCOP(=O)(OCC)C(Nc1ccccc1)c1ccc2c(c1)OCO2", "note": "(configuration not stated)", "Potency": "active: 13 µM"},
      {"molecule": "O=C(c1cc(COc2ccccc2)on1)N1CCCC(OCc2cccnc2)C1", "note": "(configuration not stated)", "Potency": "inconclusive [inhibitor, partial curve, poor fit]"},
      {"molecule": "O=C(c1cc(-c2ccc(Cl)cc2)n(-c2ccc(Cl)cc2)n1)N1CCOCC1", "Potency": "active: 16.4 µM"},
      {"molecule": "COc1cc(CNC(=O)Nc2nc(C(N)CCc3ccccc3)cs2)cc(OC)c1OC", "note": "(configuration not stated)", "Potency": "inconclusive [inhibitor, single point]"},
      {"molecule": "COc1cccc(-c2ccc(NC(=O)C3CCCN(CCCn4cccn4)C3)cc2)c1", "note": "(configuration not stated)", "Potency": "inconclusive [inhibitor, single point]"},
      {"molecule": "CC1CCC2(CC1)NC(=O)N(CC(=O)N1CCN(S(=O)(=O)c3ccccc3)CC1)C2=O", "note": "(configuration not stated)", "Potency": "inactive"},
      {"molecule": "CN(C)CCOC1=Cc2ccccc2Sc2ccc(Cl)cc21", "Potency": "inconclusive [inhibitor, single point]"},
      {"molecule": "CC1CCN(C(=O)CCc2ccc(S(=O)(=O)NC(C)C)cc2)CC1", "Potency": "inactive"},
      {"molecule": "CCOC(=O)C(C)Oc1cccc2c(=O)n(CC(=O)NCc3ccccc3)ccc12", "note": "(configuration not stated)", "Potency": "active: 0.58 µM"},
      {"molecule": "COc1ccc(S(=O)(=O)N2CCOCC2)cc1NC(=O)Cc1cccs1", "Potency": "inactive"},
      {"molecule": "CC(C)OCCCn1c(SCC(=O)N2CCc3ccccc32)nc2ccccc2c1=O", "Potency": "inconclusive [inhibitor, single point]"},
      {"molecule": "Cc1ccsc1C(=O)N1CCCC(CCC(=O)N2CCN(c3ccccn3)CC2)C1", "note": "(configuration not stated)", "Potency": "inconclusive [inhibitor, single point]"},
      {"molecule": "CCOc1ccc(/C(O)=C/C(=O)C(=O)Nc2ccc(S(=O)(=O)NC(C)=O)cc2)cc1", "Potency": "active: 25.9 µM"},
      {"molecule": "COc1ccccc1CN1CC2(CCN(C(=O)c3cc(C(F)(F)F)cc(C(F)(F)F)c3)CC2)C1", "Potency": "inactive"},
      {"molecule": "Cc1c2c(cc3c1[nH]c1ccccc13)C=NCC2", "Potency": "inconclusive [inhibitor, single point]"},
      {"molecule": "CCOC(=O)C(=CNc1ccccc1N1CCOCC1)C(=O)OCC", "Potency": "inconclusive [inhibitor, partial curve]"},
      {"molecule": "O=C(CCC(=O)N1CCOc2ccc(Cl)cc21)NCCCN1CCN(c2ccccc2F)CC1", "Potency": "active: 20.6 µM"},
      {"molecule": "CCOC(=O)[C@]12CCCC=C1N(CCc1ccc(OC)c(OC)c1)C(=O)[C@H](CC(=O)N1CCN(C(=O)C3CC3)CC1)C2", "Potency": "inactive"},
      {"molecule": "O=C(NCCNS(=O)(=O)c1ccccc1Cl)c1cc(OCC(F)(F)F)ccc1OCC(F)(F)F", "Potency": "inactive"},
      {"molecule": "CCc1ccccc1N(C(=O)c1snc(C(N)=O)c1N)C(C(=O)NCC1CCCO1)c1ccc(C)o1", "note": "(configuration not stated)", "Potency": "active: 11.6 µM"},
      {"molecule": "CC(=O)Nc1cc(OC(C)=O)c2nonc2c1OC(C)=O", "Potency": "inconclusive [inhibitor, single point]"},
      {"molecule": "CN(C)C(=O)c1ccc(NC(=O)c2cccc(S(=O)(=O)N3CCCCCC3)c2)cc1", "Potency": "inactive"},
      {"molecule": "CCC1(C)Cc2ccccc2-c2nc(NCCO)[nH]c(=O)c21", "note": "(configuration not stated)", "Potency": "inconclusive [inhibitor, single point]"},
      {"molecule": "COc1ccc(CCN2CCC(Nc3nc4ccccc4n3Cc3ccc(F)cc3)CC2)cc1", "Potency": "active: 10.3 µM and active: 3.76 µM and active: 14.6 µM"},
      {"molecule": "CN(C)c1ccc(/C=C/c2ccnc3ccccc23)c(N)c1", "Potency": "active: 0.631 µM"},
      {"molecule": "Cc1ccc(C2CC(c3ccccc3Cl)n3nc(N)nc3N2)cc1", "note": "(configuration not stated)", "Potency": "active: 20.6 µM"},
      {"molecule": "CC1=Nc2cc(C(=O)NCC3CCCO3)ccc2Sc2ccc(Br)cc21", "note": "(configuration not stated)", "Potency": "active: 3.66 µM"},
      {"molecule": "C/C(=N\\NC(=S)NC(C)C)c1ccc2c(c1)OCCO2", "Potency": "active: 1.3 µM"},
      {"molecule": "COc1ccc2[nH]c3c(c2c1)CCN1C(=O)C(CC(=O)NCCC2=CCCCC2)C[C@H](C(=O)N2CCCCC2)[C@@]31C", "note": "(some centres not stated)", "Potency": "active: 23.1 µM"},
      {"molecule": "CCOC(=O)c1cc2c(ccn2C)n1CC(=O)N(C)C", "Potency": "inactive"},
      {"molecule": "Cc1ccccc1NC(=O)CSc1ccc(-c2ccco2)nn1", "Potency": "inconclusive [inhibitor, single point]"},
      {"molecule": "CC(CCc1ccccc1)NCc1cccc2ccccc12", "note": "(configuration not stated)", "Potency": "inconclusive [inhibitor, single point]"},
      {"molecule": "COc1ccc(C2c3c(n(C)c4ccccc34)C(=O)N2CC(=O)Nc2ccc(C)c(Cl)c2)cc1", "note": "(configuration not stated)", "Potency": "inconclusive [inhibitor, single point]"},
      {"molecule": "COc1ccc(Cl)cc1NC(=O)c1cccc([N+](=O)[O-])c1O", "Potency": "active: 11.6 µM"},
      {"molecule": "O=C(NCCc1ccccc1)c1nc2nc(-c3cccs3)cc(C(F)(F)F)n2n1", "Potency": "active: 20.6 µM"},
      {"molecule": "CCOC(=O)/C(C#N)=C1/C(=O)N(Cc2ccccc2)c2ccccc21", "Potency": "active: 7.31 µM"},
      {"molecule": "COc1c2c(c(C)c3c1C(=O)OC3)O[C@@]1(C)CC[C@@]3(O)C(C)(C)OC(=O)CC[C@]3(C)[C@H]1C2", "activity change, negative = growth inhibition": "inconclusive: -30.5% [inhibitor]"},
      {"molecule": "Nc1nc(Nc2ccccc2)nc(N2CCCC2)c1[N+](=O)[O-]", "Potency": "inconclusive [inhibitor, single point]"},
      {"molecule": "CCOC(=O)C1CCN(c2nc3c(S(=O)(=O)c4ccccc4)nnn3c3ccsc23)CC1", "Potency": "active: 14.6 µM"},
      {"molecule": "S=C(NCCSCc1ccc(Cl)cc1)Nc1ccccc1", "Potency": "inconclusive [inhibitor, single point]"},
      {"molecule": "O=C(Nc1ccncc1)Nc1cccc(C(F)(F)F)c1", "Potency": "inconclusive [inhibitor, single point]"},
      {"molecule": "C[C@H](CO)N1C[C@H](C)[C@@H](CN(C)Cc2ccc(-c3ccccc3)cc2)Oc2c(NS(=O)(=O)c3cn(C)cn3)cccc2C1=O", "Potency": "inconclusive [inhibitor, single point]"}
    ]}
  ]
}
